Out of some 220,000 compounds screened, about 16,000 (7.3%) were called active. The shares of active, inactive and inconclusive entries below differ from those in the screen. Calls follow the shape of the dose curve; as a rule, active = well fitted inhibition curve with a large enough effect (not every such curve was filed as active); inconclusive = small, poorly fitted or top-dose-only effect, or another doubt; inactive = no such curve, though single readings can be large or run the other way. No potency is given beside an inconclusive call; the fits are too rough.
These compounds were tested against Aldehyde dehydrogenase 1A1 (Homo sapiens) (UniProt P00352) (assay: qHTS Assay for Inhibitors of Aldehyde Dehydrogenase 1 (ALDH1A1)). Conditions: Purified ALDH1A1, NADH fluorescence, propionaldehyde substrate; series mostly up to 75.3 µM; activity, negative = inhibition: at the top concentration.
Sequence of UniProt P00352 (P00352 whole entry, looked up): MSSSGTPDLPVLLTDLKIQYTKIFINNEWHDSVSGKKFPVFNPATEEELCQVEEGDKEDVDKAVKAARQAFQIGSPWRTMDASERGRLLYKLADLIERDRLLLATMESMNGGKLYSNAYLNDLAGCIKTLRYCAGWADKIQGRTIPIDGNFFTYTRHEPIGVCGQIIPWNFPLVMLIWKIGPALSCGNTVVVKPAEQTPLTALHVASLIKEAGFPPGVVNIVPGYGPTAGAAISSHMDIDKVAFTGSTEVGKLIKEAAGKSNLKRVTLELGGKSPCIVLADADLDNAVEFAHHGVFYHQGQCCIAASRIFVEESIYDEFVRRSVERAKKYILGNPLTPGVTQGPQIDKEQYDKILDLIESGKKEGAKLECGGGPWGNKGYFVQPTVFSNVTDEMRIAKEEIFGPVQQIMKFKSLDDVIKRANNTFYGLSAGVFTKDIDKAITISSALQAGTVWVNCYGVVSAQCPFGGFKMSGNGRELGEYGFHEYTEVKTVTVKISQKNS
For `COc1nc(-c2ccccc2)cc(-c2ccc(OC)c(OC)c2)n1`, the Potency was inconclusive [inhibitor, partial curve].
`COc1cc(/C=C(\C#N)C(=O)Nc2ccccc2C(=O)O)cc(Cl)c1OC` was tested, and the Potency was inconclusive [inhibitor, single point].
`COc1cccc(CN(C)CC(=O)Nc2ccccc2C(=O)Nc2ccccc2)c1` was tested, and the Potency was inconclusive [inhibitor, single point].
`CC(C)CNC(=O)NC(=O)COC(=O)Cn1cnc2ccccc2c1=O` was tested, and the “activity, negative = inhibition” value was inactive: 5.2%.
With `C/C(=N\Nc1nc(Nc2ccccc2)nc(N2CCOCC2)n1)c1cccs1` the “activity, negative = inhibition” value was inactive: 1.01%.
`Cc1cccc(OCCCC(=O)Nc2ccc(S(=O)(=O)N3CCCC3)cc2)c1` was tested, and the Potency was inconclusive [inhibitor, single point].
`CCCOc1ccccc1-n1sc2c(c1=S)-c1cc(OC)cc3c1N(C(=O)C3=O)C2(C)C` was tested, and the “activity, negative = inhibition” value was inactive: 2.93%.
In the case of `Cc1cnc(C(=O)OCC(=O)NC23CC4CC(CC(C4)C2)C3)cn1`, the Potency is reported as active: 25.1 µM.
`O=C(CCN1C(=O)c2ccccc2C1=O)N1CCN(C2c3ccccc3-c3ccccc32)CC1` was tested, and the “activity, negative = inhibition” value was inactive: 3.53%.
`CC(NCc1cc(Br)ccc1OCC(=O)NCc1ccccc1)c1ccccc1` (stereo unspecified) was tested, and the Potency was inconclusive [inhibitor, single point].
For `O=C(CCC(=O)N1CCN(S(=O)(=O)c2ccccc2)CC1)NC1CCCc2ccccc21` (stereo unspecified), the “activity, negative = inhibition” value was inactive: -6.63%.
In the case of `Cc1ccc2c(CC(=O)OCC(=O)Nc3ccc(Cl)cn3)coc2c1`, the Potency is reported as inconclusive [inhibitor, partial curve].
In the case of `COc1ccc(NC(=O)CN2CCN(C3c4ccccc4-c4ccccc43)CC2)cc1`, the Potency is reported as active: 22.4 µM.
With `O=C(OCC(=O)N1CCN(c2ccccc2)CC1)c1ccco1` the Potency was active: 2.24 µM.
For `CCOC(=O)c1c(-c2ccccc2)csc1NC(=O)c1ccc(N2C(=O)CCC2=O)cc1`, the Potency was inconclusive [inhibitor, full curve].
In the case of `CN1CC=C2C(C#N)=C(N)C(C#N)(C#N)C(c3ccsc3)C2C1` (stereo unspecified), the Potency is reported as inconclusive [inhibitor, single point].
`Cc1csc2ncc(C(=O)N3CCCc4ccccc43)c(=O)n12` was tested, and the Potency was inconclusive [inhibitor, single point].
In the case of `COc1ccc(NC(=O)N2CCCC2)cc1OC`, the “activity, negative = inhibition” value is reported as inactive: 3.49%.
`c1ccc(-c2cc3n(c2)CCc2ccccc2-3)cc1` was tested, and the “activity, negative = inhibition” value was inactive: -10.5%.
With `COc1ccc2nc3c(cc2c1)c(NC(=O)C1CCCO1)nn3CC(C)C` (stereo unspecified) the Potency was inconclusive [inhibitor, partial curve].
With `Cc1ccc(-c2nn(C)c(=O)c3ccccc23)cc1CNC(=O)CN1CCOCC1` the Potency was inconclusive [inhibitor, single point].
With `CCCC(C)c1nnc(NC(=O)CS(=O)(=O)Cc2ccccc2)s1` (stereo unspecified) the Potency was active: 25.1 µM.
For `Cn1ccnc1SCC(=O)c1ccc([N+](=O)[O-])cc1`, the Potency was inconclusive [inhibitor, single point].
With `Nc1nc(CN2CCN(c3ccccc3F)CC2)nc(Nc2ccccc2)n1` the Potency was inconclusive [inhibitor, single point].
For `O=C(Nc1cccc(Oc2c(F)c(F)c(F)c(F)c2F)c1)N1C[C@@H]2C[C@@H](C1)c1cccc(=O)n1C2`, the “activity, negative = inhibition” value was inactive: 2.91%.
With `Cc1ccc(NC(=O)Cc2nc(CCl)cs2)cc1` the Potency was inconclusive [inhibitor, single point].
In the case of `COC(=O)c1ccccc1NC(=O)n1cc(C)cn1`, the Potency is reported as inconclusive [inhibitor, single point].
For `COC(=O)c1ccc(=O)n(Cc2ccco2)c1`, the “activity, negative = inhibition” value was inactive: -12.7%.
In the case of `CCCNC(=O)CCn1c(-c2ccc(C)cc2)cc(C(=O)OCC)c1C`, the “activity, negative = inhibition” value is reported as inactive: 0.0174%.
`Cc1ccc(C(=O)Nc2nncs2)cc1S(=O)(=O)N1CCOCC1` was tested, and the Potency was inconclusive [inhibitor, single point].
With `COCc1cc(C)nc(NC2CCCCC2)c1C#N` the Potency was inconclusive [inhibitor, partial curve].
In the case of `Clc1ccccc1-c1nc2ccccc2c2nncn12`, the Potency is reported as inconclusive [inhibitor, single point].
In the case of `CCOc1ccc2[nH]c(=O)c(CN(CC3COCCO3)C(=O)c3ccco3)cc2c1` (stereo unspecified), the Potency is reported as inconclusive [inhibitor, single point].
`Cc1sc2nc(C3CC3)nc(SCC(=O)N3CC(=O)Nc4ccccc43)c2c1C` was tested, and the Potency was inconclusive [inhibitor, partial curve].
With `CN(C)/C=N/c1nc2ncc(-c3ccc(Cl)cc3)c(/N=C/N(C)C)n2n1` the Potency was inconclusive [inhibitor, single point].
For `Cc1cccc(NC(=S)NCCc2ccccc2)n1`, the Potency was inconclusive [inhibitor, single point].
In the case of `CN(C(=O)c1ccc2c(c1)C(=O)N(CCC1=CCCCC1)C2=O)C1CCCCC1`, the Potency is reported as active: 0.794 µM.
With `O=C(NCCCOc1cccc(CN2CCCCC2)c1)c1ccc(Cl)c(Cl)c1` the Potency was inconclusive [inhibitor, single point].
For `COc1ccc(OC)c(NC(=O)CSc2nc(C)cs2)c1`, the “activity, negative = inhibition” value was inactive: 5.03%.
For `O=C1CC(Sc2nnc(-c3ccccc3O)o2)C(=O)N1c1ccccc1` (stereo unspecified), the Potency was active: 3.55 µM.
`NC(=O)CSc1nnc(-c2cc(-c3cccs3)nc3ccccc23)o1` was tested, and the Potency was inconclusive [inhibitor, partial curve].
With `Cc1cccc(NC(=O)COC(=O)c2ccc3c(c2)OCO3)c1C` the Potency was inconclusive [inhibitor, single point].
With `COc1ccc(N(C)S(=O)(=O)c2cccc(C(=O)Nc3ccc(-n4cnnn4)cc3)c2)cc1` the “activity, negative = inhibition” value was inactive: -2.02%.
`CCOc1ccc2ncc(C(=O)c3ccc(OC)cc3)c(N3CCN(CC)CC3)c2c1` was tested, and the Potency was active: 0.708 µM.
With `CCOC(=O)c1c(-c2cccs2)csc1NC(=O)CN1CCOCC1` the “activity, negative = inhibition” value was inactive: -1.25%.
In the case of `COc1ccc2[nH]cc(CCNc3cc(-c4cccc(C#N)c4)ncn3)c2c1`, the Potency is reported as inconclusive [inhibitor, single point].
In the case of `Cc1ccccc1OCC(=O)Nc1ccc2c(c1)COC2=O`, the “activity, negative = inhibition” value is reported as inactive: 7.95%.
For `CCCCOC(=O)Nc1cc(OC)c(Cl)cc1OC`, the Potency was inconclusive [inhibitor, partial curve].
`c1ccc(C2=Nc3ccccc3OC2)cc1` was tested, and the Potency was inconclusive [inhibitor, single point].
`CN(C)/C=N/c1ncn(-c2ncc(C(F)(F)F)cc2Cl)n1` was tested, and the Potency was inconclusive [inhibitor, single point].
`CN(C)S(=O)(=O)c1ccc(C(=O)NC(=O)CSc2ccccc2)cc1` was tested, and the Potency was inconclusive [inhibitor, partial curve].
`COc1cccc(C2NC(=O)NC(C)=C2C(=O)Nc2ccccc2C)c1` (stereo unspecified) was tested, and the “activity, negative = inhibition” value was inactive: 11.7%.
In the case of `Cc1ccc(NC(=O)CN(C)C2CCCCC2)cc1Br`, the Potency is reported as active: 28.2 µM.
For `O=S(=O)(NCC1CCCO1)c1ccc(S(=O)(=O)N2CCCC2)cc1` (stereo unspecified), the Potency was inconclusive [inhibitor, single point].
For `O=C(/C=C/c1cccc([N+](=O)[O-])c1)N1CCN(c2ccccc2F)CC1`, the “activity, negative = inhibition” value was inactive: -7.04%.
With `CCn1c(=NC(=O)c2ccc(S(=O)(=O)N3CCOCC3)cc2)sc2cccc(OC)c21` the Potency was inconclusive [inhibitor, partial curve].
In the case of `O=S(=O)(c1ccc(NC(=S)N/N=C/c2c3ccccc3cc3ccccc23)cc1)N1CCOCC1`, the Potency is reported as active: 10 µM.
`COc1ccccc1CNC(=O)C(C)NS(=O)(=O)c1ccccc1` (stereo unspecified) was tested, and the Potency was inconclusive [inhibitor, partial curve].
With `Cc1ccc(-c2csc(NC(=O)C3CC=CCC3C(=O)O)c2C(=O)OC(C)C)cc1` (stereo unspecified) the Potency was inconclusive [inhibitor, single point].
`CC(NC(=O)Nc1ccc(Cl)cc1)C(c1cccs1)N1CCOCC1` (stereo unspecified) was tested, and the “activity, negative = inhibition” value was inactive: 9.56%.
For `NC(=O)CSc1cn(Cc2ccc(F)cc2)c2ccccc12`, the “activity, negative = inhibition” value was inactive: -4.32%.
With `COc1cccc(C(C(=O)NC2CCCCC2)N(C(=O)c2ccco2)c2ccc(-n3cnnn3)c(C)c2)c1` (stereo unspecified) the Potency was inconclusive [inhibitor, single point].
`CC1=NN(c2ccccc2)C(=O)/C1=C\C=C\c1ccccc1` was tested, and the Potency was inconclusive [inhibitor, single point].
With `C=CCn1c(SCC(=O)Nc2ccc(C)cc2C)nnc1-c1cccnc1` the Potency was inconclusive [inhibitor, single point].
In the case of `COc1ccc(C(C[N+](=O)[O-])c2c(-c3ccccc3)cc3ccccn23)cc1` (stereo unspecified), the Potency is reported as inconclusive [inhibitor, partial curve].
In the case of `Cc1cc(N)c(-n2cc3c(=O)n(C)c(=O)n(C)c3c2)cc1C`, the Potency is reported as inconclusive [inhibitor, single point].
With `Cc1ccc(/C=N/NC(=S)N2CCOCC2)cc1` the Potency was inconclusive [inhibitor, partial curve, poor fit].
In the case of `CN(C)c1ncc2nc(-c3ccc(Cl)cc3)c(=O)n(C[C@H]3CCCO3)c2n1`, the Potency is reported as inconclusive [inhibitor, single point].
In the case of `OCCN(CCO)c1ncnc2c1sc1nc(N3CCOCC3)c3c(c12)CCCC3`, the Potency is reported as inconclusive [inhibitor, partial curve].
For `CC(=O)Nc1ccc(S(=O)(=O)N(C)CC(=O)OCC(=O)c2cc(C)n(-c3ccc4c(c3)OCO4)c2C)cc1`, the Potency was inconclusive [inhibitor, partial curve].
`CCOc1cc(/C=C(/C#N)c2nc3ccccc3[nH]2)ccc1Oc1ccc([N+](=O)[O-])cn1` was tested, and the Potency was inconclusive [inhibitor, single point].

— PubChem BioAssay AID1030 (National Center for Advancing Translational Sciences (NCATS), 2008)
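For activity, negative = inhibition in this document: plate controls were no enzyme wells and a reference inhibitor.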
Potency is read from the fitted curve at half-maximal effect; tags tell the direction and shape of the fitted curve.
